# Measurements reported in the supplement of paper PMC11417369.
# The other results are listed elsewhere or left out.
# System: PfAP2-HC AP2 domain (GST-tagged)
# Assay: gcPBM binding intensity (ln(normalized median fluorescence intensity)); higher = stronger DNA binding
# Outline: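 An Agilent 4 × 180k array carrying primer-extended double-stranded 36-bp intergenic genomic probes and negative controls received GST-tagged P. falciparum DNA-binding domains expressed in E. coli, about 25 μg on average, for 1 h. The binding buffer contained 1× PBS, 1% milk, 0.2 mg/ml BSA, 0.5% salmon testes DNA and 0.03% Triton X-100. Binding intensity is the top Masliner-normalised natural-log median intensity across replicate spots of either probe orientation, read after Alexa488 anti-GST antibody staining and a 488 nm scan.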
row,Sequence,gcPBM binding intensity (ln)
1,AAAAATTACCCTTGTGTACACATATATTATCTGTAT [CACACA_site4513],10
2,TATAAGCTTTCAATGTGTACATATTATTTTATTATT [XGTACX_site3988],9.77
3,TCTTATAAACATGTATATATTAAAAAAAAAAAAAAA [TGCATGCA_negctrl_site86],9.17
4,TAATAATAATTAAATTGTACATATAATATAATATAA [XGTACX_site8554],9.55
5,ATATTATCATATTCGAGTACACGAAGTATTATTGCA [XGTACX_site6765],9.57
6,AATAAAGTAATAACTACACACATTTATAAAAAAGTA [CACACA_site3753],10
7,TAAAAATTACTATATGAACACACATGATTAGATATA [CACACA_site9012],9.7
8,AGGTGATTAATATATACACACATACATATATATATA [CACACA_site8913],10
9,TATATAAATTAACCAGTGCATTATTTGGAAATTATT,9.58
10,AACCATAAAAAGTGTACACATATAAAAAATATGGAA [CACACA_site4199],9.94
11,ATATATCATCATGTATGTACACACATACATATATTA [XGTACX_site2814],10.2
12,TATGCTTTTACAATGTGTACTTATATTTTTCACAGG [XGTACX_site6201],9.73
13,TAATTTTCAATAATTTGTACATAATTTTTATAAATT [XGTACX_site8133],9.42
14,ACAAGAGAAAAAAATACACACAAGATAAAAATGTAT [CACACA_site607],9.95
15,TAAAAAAATTTTACAAGTACAAAAAAATGTAATAAA [XGTACX_site4829],9.57
16,ATATATATAGATCGAAGTACAGATAGAATGAAAATA [XGTACX_site2695],9.8
17,ATATATATATAATGTAGTACTATTTAATAATAAGCC [XGTACX_site1263],10.1
18,ACCATATGTACATTTTTTTTTTTTTTTTTTTTTTTT [CACACA_negctrl_site1188],9.74
19,ACATTCAAGCGTAATTGTACATACATATATATATAT [XGTACX_site8876],10
20,ATGTATATAAATAGTAGTACATTATTTCACACTGTA [XGTACX_site2061],9.71
21,TATTGTATCCTTAATGCATGCACCAAATAAAAAAAG [TGCATGCA_site541],9.57
22,AAAAAAAAAAAAAAAGCACACACCAATGAGCAGCTT [CACACA_site1845],9.84
23,CACACCCACAGACACACACACACATATATAATATAT [CACACA_site594],11.4

row,Sequence,gcPBM binding intensity (ln)
1,TATAATCATATACACGCATGTATAAAATTTAATACT [TGCATGCA_site700],9.74
2,ATATGTTACAAAGATTGTACTTATTAAGGAGCGACT [XGTACX_site5094],9.66
3,TAATATATGTATTATGCATGTGAATAAGCACTTGAT [TGCATGCA_site848],9.54
4,TGTAAACATAAGATATGTACTTATATCATATTATAA [XGTACX_site6883],9.6
5,ATGACAATTCAAAATTGTACATAAAAAAAAAAAAAA [XGTACX_site7560],9.45
6,AAATAAAAATAAAATAAAATAAAATTAAATGGGAAT [GTGCAC_negctrl_site349],9.83
7,GTTTTATATTATATATGTACATATCCATGAGATATA [XGTACX_site3328],9.75
8,TTTAACTTTTATATAACACACATATTGTAATTATGT [CACACA_site6486],9.99
9,TTCATATGTTTTAACACACACGCATATATTATATAT [CACACA_site2007],10.1
10,AAAAAAATTTGGCATACACACACACCCCCACCCACA [CACACA_site8094],10.6
11,AAAAAACATTTTCGAGTGCATGTTTTGCTTTATTTC,9.64
12,AATAATTTGGTCTTATCAAAAATTAAAAATAAATAA [XGTACX_negctrl_site430],9.41
13,TTAAATGTTAAAAGGGTGCTATTATATAAATGAAAA [GTGCAC_site9882],9.48
14,TATAAATATAGACACACACACACCAAAGCGTAGCGC [CACACA_site6179],10.3
15,TATATATATTATAATACATGCGGTGATGAAAGTTAT [TGCATGCA_site924],9.94
16,TATGAAGTACACAATACACACTAATTATATATAAAT [CACACA_site5444],9.91
17,TTTTTAAAAAAACATACACACAAAAAAAAAAAAAAA [CACACA_site3935],9.31
18,TTTTTTTATATAGACACAAAAGAAAATTACATATAC [CACACA_negctrl_site235],9.23
19,TATAATATATATATATTTATATATATCTTCCTAATC [GTGCAC_negctrl_site682],9.59
20,AAAAAAAAAAAAAAAACACACAAGGATCATATATAT [CACACA_site3812],10
21,AATATTTATTTTATATGTACATAATTTATTTTTAAT [XGTACX_site776],9.71
22,GATTTGTCTTACAGTGGTACACTTATATATATGTGA [XGTACX_site2899],9.74
23,TATATTATATTTTTATGTACATATATGTTTTTTTTT [XGTACX_site8239],9.84

row,Sequence,gcPBM binding intensity (ln)
1,AATAAAAATATATCCACACACATATATATATCTGTA [CACACA_site4481],9.98
2,ATTTTATCAAGAGGAAGTACATTACCCCATGAAAAA [XGTACX_site8295],9.44
3,AATATAAATAATAGTAGTACATATATATCTCAGAAA [XGTACX_site4055],9.81
4,AATGGAGTTTATAAGTATAAACGAGGGATACCTAAA [XGTACX_negctrl_site483],9.69
5,TAAATAAATTTATACACACACACACCCATATATATA [CACACA_site849],10.9
6,TTATGTTGTAAATGCACACATACATATACGCAGTTT [CACACA_site3015],9.83
7,CAATTTTACTCATAAACACACATATAGATGTTATTA [CACACA_site7474],9.6
8,TATATATATATATGATGTACATGAAAATTTCCAAAA [XGTACX_site5472],9.75
9,TATATTTTTTAATTCACACAAAAATGAAAAATATTT [CACACA_site6001],9.41
10,ATATCTGAAGTGTAAAGTACATATATATATTCATAT [XGTACX_site4612],9.67
11,ACATAATAAAAATAAATTCATAAGTAAATAAATAAA [TGCATGCA_negctrl_site186],9.68
12,TGCTACATTTTATGTACACACATATACAGATATATA [CACACA_site4646],9.85
13,TGAATAAATCAAAGCACACATACACCCACATATATA [CACACA_site286],10.2
14,AATAATATTTAATACACACACCAGTTCTGCAAATTT [CACACA_site7712],10
15,GAAAAAAGAAATTAAACATGCATCTGCAAATTTAAA [TGCATGCA_site974],9.55
16,AATAGTAAAAGATATACACACACCAAAAAATATAAT [CACACA_site5293],10.3
17,TTACACATGTTTAACTGTACACATAATAGCAATATT [XGTACX_site8545],9.68
18,ACAATTATTTTGTTCTTTAATGGTAGGTTCTATGTC [CACACA_negctrl_site1419],9.54
19,CATAAATTACTTTTTACACACTAAAATAAAATACAA [CACACA_site1135],9.65
20,AATACACGCAGACACACACACACACGCACATATATA [CACACA_site6447],10.8
21,CTAAAAAATAGTAAAAGTACATAAATAATTTTGCTT [XGTACX_site8919],9.6
22,TTATATATTTTTATGTGTACTTATATATATATATAT [XGTACX_site6211],9.77
23,ATTTCCCTATATAGAGCATGCACTATATTCAAATGA [TGCATGCA_site531],9.58

row,Sequence,gcPBM binding intensity (ln)
1,CACAAAGACACAAACACACACACACCCACATACATA [CACACA_site452],10.5
2,AACAAAAACACTTTTACACACATAAGTAAAATATAT [CACACA_site1994],9.91
3,TACTTATTTAAAATAGTGCATGAATAGAAGATATAT [GTGCAC_site9756],9.59
4,AAAAAAAAATATAACAGTACATAAACATATGAATAT [XGTACX_site7093],9.71
5,TTTTATAATTTCTTCTGTACATATATATGAAAATAT [XGTACX_site74],9.4
6,TCAACCAAAACATAAGCATGCAATATATTTTTATAC [TGCATGCA_site560],9.59
7,TATTCTAAAGAAATTACACACATGCAATGAAAAAAA [CACACA_site6895],9.74
8,AAAAATAAACGACAGTGTACTAAATATTTAATTTTC [XGTACX_site3580],9.57
9,CAGGGCAGGGGGAAGGGTACACATAAAAGAAAATAA [XGTACX_site172],9.9
10,TATAAATATATATTTTGTACTTAATATAAATTTATA [XGTACX_site7996],9.48
11,ATACAAATATACTTTTGTACGAAGAAATATATATAT [XGTACX_site3912],9.68
12,ATACAATTTATTTTAACACACGAATGAATTGATTAT [CACACA_site4160],9.65
13,GGTTCATATCTTAACACACACATACATATTATAGAT [CACACA_site7392],10.1
14,TAAAGAAACTATTCAACACACGGTCTAATTATTACA [CACACA_site1064],9.72
15,ATAAAAAAAATAAAAAGTACAAAAAAAAAAAATGGA [XGTACX_site136],10
16,TTTTGAAGTAACAAATAAATAAATAAATATATAAAA [GTGCAC_negctrl_site517],9.48
17,ATTCATTCATATGTTACACACACACCGACACATAAA [CACACA_site5749],10.4
18,TATTAAACTGGACACACACACACACCCATATATAAA [CACACA_site4579],11.2
19,TTTTGTTACTTTTATGTGCACTTATAAAACGAACTA [GTGCAC_site9551],9.58
20,GACTTTTCAATTTTTCGTACGTATAAATTGTATACA [XGTACX_site1488],9.71
